Values joined by “and” are separate entries in the source; they are usually repeats but may differ in a detail not shown here. Equal values may be shown once. Among all 230,000 compounds or so, about 3,600 (1.6%) were called active. The shares of active, inactive and inconclusive entries below differ from those in the screen. The call rests on the fitted dose curve; in most records, active means well fitted inhibition curve with a large enough effect (not every such curve was filed as active); inconclusive means small, poorly fitted or top-dose-only effect, or another doubt; inactive means no such curve, though single readings can be large or run the other way. Where the call is inconclusive, the potency comes from a doubtful curve fit.
biological target: Lysine-specific demethylase 4E (Homo sapiens) (UniProt B2RXH2); test: qHTS Assay for Inhibitors of Human Jumonji Domain Containing 2E (JMJD2E); details: JMJD2E catalytic domain, FDH-coupled NADH fluorescence (FDH is formaldehyde dehydrogenase); series mostly up to 57.1 µM; activity change, negative = inhibition: at the top concentration
Further: nearly all actives have a fitted effect of over 50% in size.
Potency means the concentration at half of the fitted maximal effect; tags describe the fitted curve by direction and shape.
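Wherever activity change, negative = inhibition is given: 0% = wells with enzyme and -100% = buffer wells without enzyme.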

UniProt B2RXH2, sequence (B2RXH2 whole entry, looked up, the tested form may be a part): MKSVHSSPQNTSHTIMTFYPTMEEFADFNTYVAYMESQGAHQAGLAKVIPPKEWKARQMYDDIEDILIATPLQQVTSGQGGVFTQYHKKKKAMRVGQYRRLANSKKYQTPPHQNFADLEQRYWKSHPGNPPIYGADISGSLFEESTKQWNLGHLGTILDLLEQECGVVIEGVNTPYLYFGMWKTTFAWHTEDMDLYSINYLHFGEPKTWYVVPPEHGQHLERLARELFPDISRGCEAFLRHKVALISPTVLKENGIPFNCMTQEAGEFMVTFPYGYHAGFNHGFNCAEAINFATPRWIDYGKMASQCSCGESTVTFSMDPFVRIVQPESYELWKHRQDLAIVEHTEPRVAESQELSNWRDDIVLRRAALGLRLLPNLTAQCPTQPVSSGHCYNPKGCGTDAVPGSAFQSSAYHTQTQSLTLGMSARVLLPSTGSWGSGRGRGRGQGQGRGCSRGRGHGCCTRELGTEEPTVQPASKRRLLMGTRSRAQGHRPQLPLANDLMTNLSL

Row | SMILES | Potency | activity change, negative = inhibition
1 | CCOC(=O)c1c(C)[nH]c(C(=O)N/N=C\c2ccccc2O)c1C | inconclusive: 35.5 µM [inhibitor, single point] | 
2 | Cc1ccsc1/C=N\Nc1cn[nH]c(=O)c1Cl | inconclusive: 39.8 µM [inhibitor, single point] | 
3 | O=C1CC(N2CCCN(C3CC(=O)N(c4ccc(F)cc4)C3=O)CC2)C(=O)N1c1ccc(F)cc1 (stereo unspecified) |  | inactive: -0.661%
4 | O=C1CCCc2c1nc(-c1ccccc1F)n2O | inconclusive: 25.1 µM [inhibitor, partial curve] | 
5 | COc1cc(C(=O)Nc2ccncc2)cc(OC)c1OC |  | inactive: -6.87%
6 | CCC(=O)Nc1nnc(-c2cccs2)s1 | inconclusive: 31.6 µM [inhibitor, partial curve] | 
7 | CCCCNc1nc(C)nc2c1nc(-c1ccccc1)n2CCCN(C)C | inconclusive: 25.1 µM [inhibitor, partial curve] | 
8 | Oc1ccc(N2CCN(c3nc(-c4cccs4)nc4ccccc34)CC2)cc1 | inconclusive: 25.1 µM [inhibitor, single point] | 
9 | CCOC(=O)CN(C(=O)COc1nc(-c2ccccc2)cc(C)c1C#N)c1cccc(OC)c1 | inconclusive: 31.6 µM [inhibitor, partial curve] | 
10 | O=C1c2cccnc2C(O)N1Cc1ccccc1 (stereo unspecified) |  | inactive: 3.19%
11 | COc1ccccc1C(=O)NC(=S)Nc1ccc(NC(=O)c2ccco2)cc1 |  | inactive: -7.43%
12 | CCSc1nc(N2CCOCC2)c2c(c1C#N)CCCC2 | inconclusive: 39.8 µM [inhibitor, single point] | 
13 | Cc1ccc2cc(CN(C(=O)c3ccco3)c3ccccc3C)c(=O)[nH]c2c1 | inconclusive: 39.8 µM [inhibitor, single point] | 
14 | Cc1ccc(S(=O)(=O)/N=C(\CN2CCOCC2)N2CCCC2)cc1 |  | inactive: -1.76%
15 | COc1ccc(CCNC(=O)c2ccc(CN3CCOCC3)cc2)cc1 | inconclusive: 31.6 µM [inhibitor, single point] | 
16 | CCCN1C(=O)/C(=C\c2nc3ccccc3c(=O)[nH]2)c2ccccc21 |  | inactive: -2.46%
17 | O=C(CCN1CCC(c2ccccc2)C1)c1ccccc1 (stereo unspecified) |  | inactive: -4.98%
18 | CC(C)c1ccccc1NC(=O)COC(=O)COc1ccccc1[N+](=O)[O-] |  | inactive: 2.04%
19 | CCOC(=O)C(Oc1ccc2c(-c3ccccc3)cc(=O)oc2c1)c1ccccc1 (stereo unspecified) | inconclusive: 35.5 µM [inhibitor, single point] | 
20 | O=C1C(O)=C(O)C(=O)C(O)=C1O | active: 7.94 µM and active: 12.6 µM | 
21 | Cc1cccc(-n2nnnc2SC(C)C(=O)NCCC2=CCCCC2)c1 (stereo unspecified) | inconclusive: 39.8 µM [inhibitor, single point] | 
22 | CCOc1ccc(-c2nc3n(c(=O)c2C#N)CCCS3)cc1 | inconclusive: 28.2 µM [inhibitor, partial curve] | 
23 | O[C@H](CCCN1CCN(c2ncc(F)cn2)CC1)c1ccc(F)cc1 | inconclusive: 35.5 µM [inhibitor, partial curve] | 
24 | CCSc1nc2cc(C(=O)OC)ccc2c(=O)n1CC | inconclusive: 28.2 µM [inhibitor, single point] | 

Row | SMILES | Potency | activity change, negative = inhibition
25 | COC(=O)c1ccc(C2NC(=O)c3c(sc(C)c3C)N2)cc1 (stereo unspecified) | inconclusive: 31.6 µM [inhibitor, single point] | 
26 | COc1ccc(OC)c(/C=c2\sc3nc(-c4cccs4)nn3c2=O)c1 | inconclusive: 39.8 µM [inhibitor, single point] | 
27 | COc1cc(C#N)c(NC(=O)CN2CCC(C(N)=O)CC2)cc1OC |  | inactive: -1.92%
28 | CCOC(=O)C1C(=O)OC(C)(C)C1C(CC)C(=O)c1c(C)cc(C)cc1C (stereo unspecified) | inconclusive: 2.51 µM [inhibitor, partial curve] | 
29 | CC(=O)NCCCCCCNC(C)=O | inconclusive: 4.47 µM [inhibitor, single point] | 
30 | O=C(CCc1ccccc1)NNC(=O)c1ccc(NC(=O)c2ccccc2)cc1 | inconclusive: 28.2 µM [inhibitor, partial curve] | 
31 | Cc1nnc(N/N=C/c2cc(C)n(-c3ccc(F)cc3)c2C)n1N | inconclusive: 0.631 µM [inhibitor, full curve, poor fit] | 
32 | O=C(Nc1ccc(S(=O)(=O)Nc2nccs2)cc1)c1cnc(Cl)c(Cl)c1 | inconclusive: 39.8 µM [inhibitor, single point] | 
33 | Nc1nccc(-c2ccc(-n3cnc4ccccc43)cc2)n1 | inconclusive: 35.5 µM [inhibitor, partial curve] | 
34 | CCN1CCCC1Cn1c(-c2ccccc2)nc2c(NCc3ccccc3)nc(C)nc21 (stereo unspecified) | inconclusive: 25.1 µM [inhibitor, partial curve] | 
35 | COCCNC(=O)c1c(N)n(/N=C/c2cccs2)c2nc3ccccc3nc12 | inconclusive: 14.1 µM [inhibitor, partial curve] | 
36 | Cc1ccc(Nc2ccc(C(=O)O)cc2N)cc1 | inconclusive: 28.2 µM [inhibitor, partial curve] | 
37 | CCCSc1nc(=O)n2cc(C)ccc2n1 | inconclusive: 31.6 µM [inhibitor, single point] | 
38 | Cc1[nH][nH]c(=O)c1C(c1ccc(-c2cccc(Cl)c2)o1)c1c(C)[nH][nH]c1=O | inconclusive: 1.58 µM [inhibitor, partial curve] | 
39 | CC1CCN(CCCCOc2ccc(Br)cc2)CC1 | inconclusive: 22.4 µM [inhibitor, single point] | 
40 | Cc1nc2ccccn2c1C(=O)NCCCN1CCOCC1 | inconclusive: 39.8 µM [inhibitor, single point] | 
41 | CCN(C(=O)c1nn(-c2ccc(OC)cc2)c(=O)c2c1c1ccccc1n2C)c1ccc(OC)cc1 | inconclusive: 31.6 µM [inhibitor, single point] | 
42 | O=c1c2c(-c3cccs3)csc2ncn1-c1ccc(Br)cc1 | inconclusive: 25.1 µM [inhibitor, single point] | 
43 | COCCCn1c(=S)[nH]c2ccc(N3CCOCC3)cc2c1=O | inconclusive: 28.2 µM [inhibitor, partial curve] | 
44 | CC(=O)Nc1ccc(-c2csc(N/N=C(/C)c3ccccc3)n2)cc1 | inconclusive: 25.1 µM [inhibitor, single point] | 
45 | COC(CNC(=O)c1ccc2nc(-c3ccccc3)c(-c3ccccc3)nc2c1)OC | inconclusive: 31.6 µM [inhibitor, partial curve] | 
46 | COC(=O)c1c(NC(=O)C2CCCO2)sc2c1CCC2 (stereo unspecified) | inconclusive: 35.5 µM [inhibitor, single point] | 
47 | O=C(CSc1n[nH]c(-c2cccnc2)n1)Nc1ccccc1 |  | inactive: 9.26%
48 | O=S(=O)(NC(=NCCc1ccc(Cl)cc1)c1ccccc1Cl)c1cccs1 |  | inactive: 2%

Row | SMILES | Potency | activity change, negative = inhibition
49 | O=C(NCCNc1ccc([N+](=O)[O-])cc1C(F)(F)F)c1cccc(F)c1 |  | inactive: 3.67%
50 | Cc1ccc(CC(=O)NCC(c2ccco2)N(C)C)cc1C (stereo unspecified) | inconclusive: 39.8 µM [inhibitor, single point] | 
51 | Cc1ccc(CNC(=O)c2ccccc2N)cc1 | inconclusive: 31.6 µM [inhibitor, partial curve] | 
52 | COc1cc(O)c(CCO)c2c1C(=O)C[C@@H](C)O2 | inconclusive: 25.1 µM [inhibitor, partial curve] | 
53 | COc1ccc(Cl)cc1NC(=S)NCc1ccc(S(N)(=O)=O)cc1 |  | inactive: -1.47%
54 | CO/N=C/c1ccc(N2CCCC2)c([N+](=O)[O-])c1 |  | inactive: -0.632%
55 | Cn1c(=O)cc(Nc2ccccc2)c2c(=O)n(-c3ccccc3)c(=O)n(-c3ccccc3)c21 | inconclusive: 20 µM [inhibitor, single point] | 
56 | COc1ccc(OC)c(Cc2nnc(CCC(=O)NCc3ccsc3)o2)c1 |  | inactive: 3.03%
57 | Cc1ccc(-c2ccc(CCC(=O)O)n2CC2CCCO2)cc1 (stereo unspecified) | inconclusive: 31.6 µM [inhibitor, partial curve] | 
58 | Cc1ccc2c(c1C)NC(C)CC2C (stereo unspecified) | inconclusive: 35.5 µM [inhibitor, single point] | 
59 | COC(=O)CC1c2ccccc2C=C(/C=C/c2ccc3c(c2)OCO3)N1C(=O)OC (stereo unspecified) | inconclusive: 3.55 µM [inhibitor, partial curve] | 
60 | CC(C)CNC(=O)COC(=O)c1c2c(nc3ccccc13)/C(=C/c1cccs1)CC2 | inconclusive: 22.4 µM [inhibitor, partial curve] | 
61 | Cc1ccc(NC2CC(=O)N(c3ccc(C)cc3)C2=O)cc1 (stereo unspecified) |  | inactive: -1.25%
62 | COCCNC(=O)C1(C)Oc2ccccc2NC1=O (stereo unspecified) |  | inactive: 3.31%
63 | Cc1ccc(C(=O)C2=C(O)C(=O)N(c3ncccn3)C2c2ccc(Cl)cc2)o1 (stereo unspecified) |  | inactive: -14.8%
64 | Cc1ccc(-n2c(SCc3ccc(C(=O)O)cc3)nnc2-c2ccncc2)cc1 |  | inactive: -0.18%
65 | CN=C(c1ccco1)n1c(=S)nc(-c2ccco2)n(C)c1=S | inconclusive: 28.2 µM [inhibitor, single point] | 
66 | Cc1cc(C)n(-c2nc(SCCN(C)C)c3c4c(sc3n2)CCCC4)n1 | inconclusive: 28.2 µM [inhibitor, single point] | 
67 | COc1ccc(O)c(C(=O)c2coc(=N)c(C(=O)Nc3ccc(SC(F)F)cc3)c2)c1 | inconclusive: 10 µM [inhibitor, partial curve] | 
68 | CCOC(=O)c1sc(Nc2ccc(OCC)cc2)nc1C | inconclusive: 31.6 µM [inhibitor, single point] | 
69 | COc1ccc(-c2cc3ccc(OCc4nn[nH]n4)cc3oc2=O)cc1 | inconclusive: 25.1 µM [inhibitor, partial curve] | 
70 | COc1ccc(C(C)(C)C)cc1NC(=O)CNc1cccc2ccccc12 | inconclusive: 28.2 µM [inhibitor, partial curve] | 
71 | CC(=O)Nc1sc(NC(=O)c2ccc(Cl)cc2)nc1-c1cccs1 |  | inactive: 2.23%

— PubChem BioAssay AID2147 (National Center for Advancing Translational Sciences (NCATS), 2009)
